Laboratory results reported in PubChem BioAssay AID1508623 (National Center for Advancing Translational Sciences (NCATS), 2021).
Hit rate of the full screen: of about 48,000 compounds, about 450 (0.94%) were called active. Another 19% or so got no clear call; they are omitted. Calls come from the whole dose curve; as a rule, active = well fitted inhibition curve with a large enough effect; inconclusive = small, poorly fitted or top-dose-only effect; inactive = no such curve, though single readings can be large or run the other way. This is one part of the list.

Assay: Primary qHTS for Identification of Small Molecule Inhibitors of Huntingtin Promoter Activity; note: nearly all actives have a fitted effect of over 50% in size
Conditions: HEK293 HTT promoter firefly luciferase reporter (activity 0% = vehicle and -100% = no light), 24 h; series mostly up to 57.5 µM; activity change, negative = inhibition: at the top concentration
How it was run: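 Firefly luciferase readout (Dual-Glo, 10 min RT) after 24 h, 37 °C compound exposure (final up to 57.5 uM) of HEK293 reporter cells cultured 24 h beforehand; PTC124 at 50 uM final as control inhibitor; activity scaled vehicle 0%, zero RLU -100%.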
Potency is the fitted concentration of half-maximal effect.

| SMILES | activity change, negative = inhibition | Potency |
| --- | --- | --- |
| O=C(Nc1nnc(S(=O)(=O)N2CCCCC2)s1)c1ccccc1Br | inactive: -17.7% | – |
| Cc1ccc(NC(=O)c2ccc3c(O)c(S(=O)(=O)c4ccccc4)c(=O)[nH]c3c2)cc1Cl | inactive: -8.59% | – |
| Cc1ccc(-c2nnc(Nc3ccc(C(=O)N(C)C)cc3)c3ccccc23)cc1S(=O)(=O)N(C)C | inactive: -13.1% | – |
| CCN(C(=O)CN1C(=O)COc2ccc(S(=O)(=O)N3CCOCC3)cc21)c1ccc(OC)cc1 | inactive: -5.26% | – |
| CC(C)(C)CC(=O)NCC(c1ccc2c(c1)OCO2)N1CCOCC1 (centres undefined) | inactive: -15.4% | – |
| O=C(Nc1cccc(F)c1)c1ccc2c(c1)N(Cc1ccccc1)C(=O)c1ccccc1S2(=O)=O | inactive: -16.5% | – |
| O=C(COc1ccc(Cl)cc1)OCc1cc(=O)n2nc(C3CC3)sc2n1 | inactive: -10.2% | – |
| COC(=O)c1ccccc1NC(=O)C1CCN(C(=O)N2CC(C)Oc3ccccc32)CC1 (centres undefined) | inactive: -19.4% | – |
| COc1ccc(C(=O)NCC(c2ccc(N(C)C)cc2)N2CCc3ccccc32)cc1OC (centres undefined) | inactive: -14.9% | – |
| N[C@@H](C(=O)N[C@@H]1C(=O)N2C(C(=O)O)=C(Cl)CS[C@H]12)c1ccccc1 | inactive | – |
| COc1ccc(-c2nc3ccccc3s2)cc1NC(=O)c1ccc(F)cc1 | inactive: 11.5% | – |
| CN1[C@@H]2CC[C@H]1CC(NC(=O)n1c(=O)[nH]c3ccccc31)C2 (some centres undefined) | inactive: 3.34% | – |
| Cc1ccc(OCC(=O)Nc2ccccc2OCc2cc(=O)n3ccccc3n2)cc1C | inactive: 0.0621% | – |
| Cc1cccc(NC(c2ccccc2F)c2ccc3ccc(C)nc3c2O)n1 (centres undefined) | inactive: 3.12% | – |
| CCOC(=O)Cn1c(=O)oc2cc(S(=O)(=O)N3CCN(c4cccc(C)c4)C(C)C3)ccc21 (centres undefined) | inactive: -25.5% | – |
| CC(=O)Nc1ccc2nc3c(=O)n(C)c(=O)n(C)c3nc2c1C | inactive: 0.302% | – |
| Cc1nc2cccnc2n1-c1cccc(C(=O)NCCN(C)C)c1 | inactive: -5.81% | – |
| COc1ccc(-c2cc(C(F)F)nn2-c2ccc(S(N)(=O)=O)cc2)cc1F | inactive: -4.23% | – |
| N#Cc1nc(-c2ccc(COc3ccccc3)o2)oc1N1CCN(c2ccccc2)CC1 | inactive: -4.46% | – |
| CCc1ccc(CNC(=O)c2cnc3sc(N4CCOCC4)nn3c2=O)cc1 | inactive: -3.12% | – |
| Cc1cccc(OC(=O)c2cc(-c3ccc(C)c(C)c3)on2)c1 | inactive: -3.77% | – |
| COc1ccc(Cl)cc1NC(=O)N1CCN(Cc2cc(=O)n3nc(-c4ccccc4)sc3n2)CC1 | inactive: -7.34% | – |
| NC1=NC(c2cccc(Cl)c2)n2c(nc3ccccc32)N1 (centres undefined) | inactive: 12.4% | – |
| CCCS(=O)(=O)Nc1cccc(-c2cn3ccc(C)cc3n2)c1 | inactive: 31.6% | – |

| SMILES | activity change, negative = inhibition | Potency |
| --- | --- | --- |
| CCOc1ccc2c(c1)c(=O)c(S(=O)(=O)c1ccc(F)cc1)cn2CC(=O)Nc1ccccc1C | inactive: -20.1% | – |
| CCOC(=O)c1cnn(-c2ccc(C(=O)Nc3ccc(C(C)=O)cc3)cc2)c1N | inactive: -7.12% | – |
| CCOC(=O)c1c(S(=O)(=O)N2CCCC(C(=O)NCc3cccc(C)c3)C2)c(C)n(C)c1C (centres undefined) | inactive: -2.34% | – |
| COc1cc2cc(CNc3ccccc3)c(=O)n(CC(=O)Nc3ccc(C)c(Cl)c3)c2cc1OC | inactive: -22.8% | – |
| COCCN(Cc1ccco1)C(=O)c1cc2c(=O)[nH]c3ccc(C)cc3c2s1 | inactive: 5.68% | – |
| COC(=O)c1ccc(NC(=O)CCCC(=O)OCC(=O)c2ccc(Cl)cc2)cc1 | inactive: -2.07% | – |
| Cc1ccc(-c2noc(-c3ccc(N4CCN(C)CC4)c([N+](=O)[O-])c3)n2)cc1 | inactive: -19.6% | – |
| O=C(COc1ccccc1)NCC(c1ccc(Cl)cc1)N1CCOCC1 (centres undefined) | inactive: -24.8% | – |
| Cc1ccc(NC(=O)c2oc3ccc4c(c3c2C)C(=O)CC(C)(C)O4)c(C)c1 | inactive: -19.5% | – |
| COc1ccc(CCNC(=O)c2cccc(Nc3nc4ccccc4nc3-n3nc(C)cc3C)c2)cc1OC | inactive: -11.4% | – |
| O=C(CSc1n[nH]c(-c2ccc(F)cc2)n1)NCc1ccccc1Cl | inactive: -23.9% | – |
| COc1ccc(C2C=C(c3ccc(Cl)cc3)Nc3nc(-c4ccc(Cl)cc4)nn32)cc1 (centres undefined) | – | active: 25.1 µM |
| Cn1ncc2c(N3CCN(c4ccccc4F)CC3)ncnc21 | inactive: -25.1% | – |
| COc1ccc(C)cc1NC(=O)Nc1cccc(OCc2cc(=O)n3ccc(C)cc3n2)c1 | inactive: 14% | – |
| CCOc1ccc(/C=C/c2nc(C#N)c(NC(C)c3ccccc3)o2)cc1 (centres undefined) | inactive: -3.48% | – |
| Cc1ccccc1OCC(=O)NCC(c1ccc(Cl)cc1)N1CCCCC1 (centres undefined) | inactive: -31.3% | – |
| CCOC(=O)c1ccc(-n2c(CCC(=O)O)ccc2-c2ccccc2)cc1 | inactive: 5.36% | – |
| COc1cccc(C(=O)N2c3ncnn3C3(CCCCC3)[C@@H]3CCCC[C@@H]32)c1 | inactive: -24.5% | – |
| COc1ccc(N2CCN(S(=O)(=O)c3ccc(-c4ccno4)cc3OC)CC2)cc1 | inactive: 4.98% | – |
| CCc1cccc(C)c1NC(=O)CN1C(=O)C2(SCC(=O)N2c2cccc(F)c2)c2ccccc21 (centres undefined) | inactive: -19.9% | – |
| COc1ccc(OC)c(Nc2sc(C(=O)c3ccccc3)c(N)c2S(=O)(=O)c2ccccc2)c1 | inactive: -18% | – |
| COc1ccc(C(=O)COC(=O)c2cc(-c3cccs3)nc3ccccc23)cc1 | inactive: 15.9% | – |
| O=c1oc2ccccc2c(N2CCN(c3ccc(F)cc3)CC2)c1CN1CCCC1 | inactive: -8.07% | – |
| O=C(Cn1ncc2c([nH]c3ccccc32)c1=O)NCCCN1CCN(c2ccccc2)CC1 | inactive: -22.4% | – |

| SMILES | activity change, negative = inhibition | Potency |
| --- | --- | --- |
| Cc1ccccc1NC(=O)Cn1c(=O)n(CCc2ccccc2)c(=O)c2ccccc21 | inactive: -0.988% | – |
| CCc1nn2c(=O)cc(COC(=O)c3ccccc3NC(=O)COc3ccc(C)c(C)c3)nc2s1 | inactive: -15.5% | – |
| CC(C(=O)Nc1ccc(OC(F)(F)F)cc1)N1Cc2ccccc2C1=O (centres undefined) | inactive: -29.6% | – |
| CCCCn1cc(S(=O)(=O)c2cc(C)ccc2C)c(=O)c2cc(F)c(F)cc21 | inactive: -22.6% | – |
| CCOC(=O)c1cccc(NC(=O)c2oc3c(c2C)-c2nn(CC)cc2CC3)c1 | inactive: 22.3% | – |
| Cc1c(Cl)cccc1-n1ncc(C(=O)NC2CCCCC2)c1C1CCN(C(=O)OC(C)(C)C)CC1 | inactive: -17.1% | – |
| COc1ccc(Br)cc1[C@@H]1Nc2ccc(C(=O)O)cc2[C@@H]2C=CC[C@@H]21 | inactive: -16.9% | – |
| CCOc1ccc(CCNC(=O)CSc2nnnn2-c2ccccc2)cc1OCC | inactive: -14% | – |
| C#CCn1c(=O)n(-c2cccc(Cl)c2C)c(=O)c2c3c(sc21)CN(C(C)=O)CC3 | inactive: 3.58% | – |
| Cc1ccc(C)c(N2CCN(CCCNC(=O)c3cnn(-c4ccc(F)cc4)c3C3CCN(C(=O)OC(C)(C)C)CC3)CC2)c1 | inactive: -3.34% | – |
| CC(C)C(=O)Nc1nc2c(s1)CC(C(C)(C)C)CC2 (centres undefined) | inactive: -5.99% | – |
| CCOc1ccc(CNC(=O)Cn2nc(C)c3c(C)n(-c4ccc(C)cc4)nc3c2=O)cc1 | inactive: -26% | – |
| O=C(CCS(=O)(=O)c1ccccc1)N(Cc1cccnc1)c1nc2ccc(F)cc2s1 | inactive: 12.6% | – |
| CC(=O)c1ccc(-n2c(CCC(=O)O)ccc2-c2cccs2)cc1 | inactive: -1.42% | – |
| Cc1ccc(C)c(CSc2nnc(C)n3c2cc2sccc23)c1 | inactive: -22.5% | – |
| O=C(Cn1c(=O)nc(-c2ccccc2)c2ccccc21)N1CCN(c2ccc(F)cc2)CC1 | inactive: -8.26% | – |
| O=C(CS(=O)(=O)c1cccc2nsnc12)NCc1ccccc1 | inactive: -9.62% | – |
| Cc1noc(/C=C/c2ccccc2F)c1S(=O)(=O)N1CCC(C(=O)NCC(C)c2ccccc2)CC1 (centres undefined) | inactive: -15.9% | – |
| COc1cc(NC(=O)C(Cc2ccccc2)NS(=O)(=O)c2cccs2)cc(OC)c1 (centres undefined) | inactive: -32.7% | – |
| CC(C)Oc1ccccc1NC(=O)CSc1nccn1C | inactive: -11.6% [at 11.5 µM] | – |
| O=C(O)CSc1nc2ccc(NC(=O)COc3ccc(Cl)cc3)cc2s1 | inactive: -6.22% | – |
| Cc1ccc(-n2c(=O)c3c(c4cc(C)ccc4n3C)n(CC(=O)c3ccc(Cl)cc3)c2=O)cc1 | inactive: -5.58% | – |
| Cc1ccc(NC(=O)c2ccc(CN3CC(=O)N4CCCCC4C3=O)cc2)c(C)c1 (centres undefined) | inactive: -16.7% | – |
| COC(=O)c1ccc(NC(=O)CSc2nnc3c4ccccc4n(C(C)C)c3n2)cc1 | inactive: 8.85% | – |

| SMILES | activity change, negative = inhibition | Potency |
| --- | --- | --- |
| CCOc1cccc(C(=O)Nc2cc(C)c(O)c(-c3nc4ncccc4o3)c2)c1 | inactive: -18.8% | – |
| COc1cccc(Cc2nc3ccccc3nc2SCC(=O)N2CCCc3ccccc32)c1 | inactive: -1.84% | – |
| COc1ccc(CNC(=O)CC(c2ccc(OC)cc2)N2Cc3ccccc3C2=O)cc1 (centres undefined) | inactive: -13.6% | – |
| CCOC(=O)c1c(NC(=O)c2cc(=O)c3cc(C)cc(C)c3o2)sc(C)c1C | inactive: 13.8% | – |
| Cc1ccc(-c2nn(CC(=O)NCc3ccccc3)c3c2cnc2ccc(F)cc23)cc1C | inactive: 35.7% | – |
| COc1ccc(OC)c(-n2c3c(cc(-c4nc(-c5ccc(Cl)cc5)cs4)c2=O)C(=O)CC(C)(C)C3)c1 | inactive: -10.9% | – |
| CCCNC(=O)CN1C(=O)COc2ccc(S(=O)(=O)N3CCC(C)CC3)cc21 | inactive: -4.05% | – |
| COc1ccccc1CNC(=O)CSc1ccc(-c2sc(-c3ccccc3)nc2C)nn1 | inactive: -0.629% | – |
| CCC(=O)N1CCc2cc(S(=O)(=O)NC(Cc3ccccc3)C(=O)Nc3ccccc3C)ccc21 (centres undefined) | inactive: -20.5% | – |
| CC(=O)c1cccc(NS(=O)(=O)c2cc3c(cc2C)n(C)c(=O)c(=O)n3C)c1 | inactive: 0.136% | – |
| Cc1cccc(NC(=O)C(=O)NCC(c2ccc3c(c2)OCO3)N2CCN(c3ccccc3)CC2)c1 (centres undefined) | inactive: -10.5% | – |
| CC(C(=O)O)c1ccc(/C=C2\CCCCC2=O)cc1 (centres undefined) | inactive: 16.4% | – |
| O=C(Nc1sc2c(c1C(=O)Nc1ccccc1)CCC2)c1ccc(Br)cc1 | inactive: -8.47% | – |
| CCOCCCNC(=O)C(c1ccccc1)N1Cc2ccccc2C1=O (centres undefined) | inactive: -8.75% | – |
| Cc1cccc(N2CCN(Cc3cc(=O)oc4cc(C)ccc34)CC2C)c1 (centres undefined) | inactive: -1.49% | – |
| CC(C)c1ccc(CNc2nc(-c3ccco3)nn2S(=O)(=O)c2ccc(F)cc2)cc1 | inactive: -5.3% | – |
| Cc1ccccc1N1CC(c2nnc(NC(=O)c3ccco3)s2)CC1=O (centres undefined) | inactive: -10.2% | – |
| Cc1cccc(NC(=O)N2CCC(N3CCN(Cc4ccccc4)C(=O)C3=O)CC2)c1C | inactive: -2.42% | – |
| O=C(c1cc(-c2ccc(F)cc2)on1)N1CCN(c2ccc(F)cc2)CC1 | inactive: -4.56% | – |
| CCCCNS(=O)(=O)c1ccc2nc(-c3cccnc3)cc(C(=O)NC(C)C)c2c1 | inactive: -31.6% | – |
| Cn1nc(C(=O)N2CCN(c3ccccc3F)CC2)c2c1-c1ccccc1S(=O)(=O)C2 | inactive: 12.6% | – |
| O=C(CN1C(=O)c2cccc3cccc1c23)Nc1ccccc1Br | inactive: -12.4% | – |
